The values that follow come from the RNAGym collection of RNA variant scans (doi:10.1093/nar/gkz1192).

B1: CPEB3 Ribozyme (parent)
chain: UAACAGGGGGCCACAGCAGAAGCGUUCACGUCGCAGCCCCUGUCAGAUUCUGGUGAAUCUGCGAAUUCUGCUGUAUAUCUC

Read counts are not given, so values of variants with three or more changes are uncertain.

Variants of B1 are the subject of the data set. The data set can be described thus: self-cleavage, relative activity (ratio to wild type); higher = more cleavage; in vitro, sequencing. The procedure, abridged: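 For each CPEB3 ribozyme variant, relative activity is its cleaved/total read fraction divided by the unmutated ribozyme's. Barcoded error-prone PCR libraries were transcribed by T7 RNA polymerase (5 hours, 37°C) and held in DNase I for 15 min before an EDTA stop, with cleavage occurring throughout. Template-switching reverse transcription and Illumina sequencing were used to read the RNAs. A 5-read minimum applied, and results are the mean of three batches.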
Take UAACAGGGGGCCGCGGCUGAAGCGUUCACGUCGCAGCCCCUGCCGGAUUCUGGUGAAUCUGCGAAUUCUGCUGUAUAUCAC: the self-cleavage stood at 0.03.
For the variant UAACAGGGGGCCGCCGCAGAAGCGUUCACGUCGCAGCCCCUGUCAGAUCCGGGUGAAUCUGCAAAUUCCGCUGUAUAACUC, the self-cleavage amounted to 0.34.
In the case of UAACAGGGGGCCGCAGCGGAAGCGUUCACGUCGCAGCCCCUGUUAGAUUCUGGUGAAUCUGCGAAUACUGCUGUAUAUCUC, the self-cleavage is 0.05.
Then UAACAGGGGGCCGCAGCGGAAGCGUUCACGUCGCAGCCCCUGUCAGAUUCUGGUGAAUCUGCGAAUACUGCUGUAUAUCUC, with 0.23; and UAACAGGGGGCCGCGGCAGAAGCGUUCACGUCGCGGCCCCUGUCAGAUUCUGGUGAAUCUGCGAAUUCUGCUGUAUAUCUC, with 0.63.
For UAACAGGGGGCCGCAGCGGAAGCGUACACGUCGCAGCCCCUGUCAGAUUCUGGUGAAUCUGCGAAUUCUGCUGUAUAUCUC, the self-cleavage worked out at 0.41.
For the variant UAACAGGGGGCCGCGGCUGAAGCGUUCACGUCGCAGCCCCUGUCAGAUUCUGGUGAAUCUGCGAAUUCUGCUGUAUAUCUC, the self-cleavage is 0.3.
To UAACAGGGGGCCGCGGCAGAAGCGUUCACGUCGCAGCCCCUGUCAGACUCUGGUGAAUCUGCGAAUUCUGCUGUAUAUCUC belongs 0.14; to UAACAGGGGGCCGCAGCGGAAGCGUUCACGUCGCAGCCCCUGUCAGAUUCUAGUGAAUCUGCGAACUCUGCUGUAUAUCUC, 0.13; to UAACAGGGGGCCCCAGCAGAAGCGUUCACGUCGCAGCCCCUGCCAGGUUCUGGUGAAUCUGCGAAUUCUGCUGUAUAUCUC, 0.42.
To UAACAGGGGGCCCCAGCAGAAGCGUUCACGUCGCAGCCCCUGCCAGAUUCUGGUGAUUCUGCGAAUUCUGCUGUAUAUCUC belongs 0.39; to UAACAGGGGGCCGCAGCGGAAGCGUUCACGUCGCAGCCCCUGGCAGAUUCUGGUGAAUCUGCGAAUUCUGCUGUAUAUCUC, 0.04.
To UAACAGGGGGCCCCAGCAGAAGCGUUCACGUCGCAGCCCCUGUCAGAUUCAGGUGAAUCUGCGAAUUCCGCUGUAUAUCUC belongs 0.62; to UAACAGGGGGCCGCAGCGGAAGCGUACACGUCGCAGCCCCUGUCGGUUUCUGGUGAAUCUGCGAAUUCUGCUGUAUAUCUC, 0.12.
Turning to UAACAGGGGGCCGCUGCAGAAGCGUUCACGUCGCAGCCCCUGUCAGAUUCUGGUGAAUCUGCGAAUUCCGCUGUACUUCUC, the self-cleavage was 0.14.
For the variant UAACAGGGGGCCGCAGCGGAAGCGUUCACGUCGCAGCCCCUGUCAGAUUCUGGUGAAUCUGCGGUUUCUGCUGUAUAUCUC, the self-cleavage is 0.08.
Consider UAACAGGGGGCCGCAGCGGAUGCGUUCACGUCCCAGCCCCUGUCAGAUACUGGUGAAUCUGCGAAUUCUGCUGUAUAUCUC, for which the self-cleavage stood at 0.06.
Then UAACAGGGGGCCGCAGCGGAAGCGUUCUCGUCGCAGCCCCUGUCAGAUUCUGGUGAAUCUGCGAAUUCUGCUGUAUAUCUC, with 0.36; and UAACAGGGGGCCGCAGCGGAAGCGUUCACGUCGCAGCCCCUGUCAGAUCCUGGUGAAUCUGCGAUUUCUGCUGUAUAUCUC, with 0.08.
Then UAACAGGGGGCCGCGGCAGAAGCGUUCACGUCGCUGCCCCUGUCAGAUUUUGGUCUAUCUGCGAAUUCUGCUGUAUAUCAC, with 0.04; and UAACAGGGGGCCCCAGCAGAAGCGUUCACGUCGCAGCCCCUGUCAGAUUCUGGCGAAUCUGCGAAUUCUGCUGUAAAUCUC, with 1.19.
To UAACAGGGGGCCGCGGCAGAAGCGUUCACGUCGCAGCCCCUGUCAGAUUCUGGUGAAACUGCGAAUUCUGCUGUAAAUCCC belongs 0.39; to UAACAGGGGGCCGCGGCAGAAGCGCUCCCGUCGCAGCCCCUGUCAGAUUCCGGUGAAUCUGCGAAUUCUGCUGUAUAUCUC, 0.48.
With UAACAGGGGGCCGCGGCAGAAGCGUUCACGUCGCAGCCCUUGUCAGAUUCUGGUGAAUCUGCGAAUUCUGCUGUAUAUCUC, the self-cleavage is 0.15.
To UAACAGGGGGCCGCGGCAGAAGCGUUCACGUCGCAGCCCCUGUCAGAUUCUGGUGAAUCUGCGAAUUCUGCGGUAUAUUUC belongs 0.43; to UAACAGGGGGCCGCAGCCGAAGCGCCCACGUCGCAGCCCCUGUUAGAUUCUGGUGAAUCUGCGACUUCAGCUGUAUAUCUC, 0.05; to UAACAGGGGGCCGCGGCAGAAGCGUUCACGUCGCAGCCCCUGUCAGUUUCUGGUGAAUCUGCGAAUUCUGCUGUAUAUCUC, 0.45.
Then UAACAGGGGGCCGCAGCGGAAGCGUUCGCGUCGCAGCCCCUGUCAGAUUCUGGUGAUUCUGCGAAUUCUGCUGUAUAUCUC, with 0.41; and UAACAGGGGGCCGCGGCAGAAGCGUUCACGUCGCAGCCCCAGUCAGAUUCAGGUGAACCUGCGAAUUCUGCUGUAUAUCUC, with 0.17.
With UAACAGGGGGCCGCUGCAGAAGCGUUCACGUCGCAGCUCCUGUCAGAUUCUGGUGAAUCUGCGAAUUCUGCUGUAUAUCUC, the self-cleavage stood at 0.46.
Then UAACAGGGGGCCGCUGCAGAAGCGUUCACGUCGCAGCGCCUGUCAGAUUCUGGUGAAUCUGCGAAUUCUGCUGUAUAUCUC, with 0.06; and UAACAGGGGGCCGCUGCAGAAGCGUUCACGUCGCAGCCCCUGUCAGAUUCUGGUGAAUCUGAGAACUCUGCUGCGUAUCUC, with 0.1; and UAACAGGGGGCCCCAGCAGAAGCGUUCACGUCGCAGCCCCUGUCAGAUCCUGGUGGAUCUGCGAAUUCCGCUGUAUAACUC, with 0.44.
For the variant UAACAGGGGGCCGCCGCAGAAGCGUUCACGUCGCAGCCCCUGUCAGAUUCAGGUGAAUCCGCGAAUCCUGCUGUAUAUCUC, the self-cleavage is 0.28.
